Reference: patent US20230135471A1, “UBIQUITIN VARIANTS WITH IMPROVED AFFINITY FOR 53BP1” (Integrated DNA Technologies, Inc., priority 2021, published 2023)
“Also recorded” adds a separate entry of the source.

Tests used:
fragment of 53BP1 = fragment of 53BP1 (Homo sapiens, UniProt Q12888); test: BLI steady-state response, one site-specific binding fit, fold change in affinity (KA ratio) versus reference variant; details: for benefit to affinity when added to a base of CM113: FIG. 9C
Excerpt: Testing of additional combinations of mutations identified variants with improved affinity over the previous best variant, CM1. In order to further validate the amino acids changes identified in the two-hybrid screen as candidates for improving the affinity of our Ubvs for 53BP1, a subset of the top hits from the screen were individually added to i53, the results of this screen are shown in FIG. 7. For graphs in this invention disclosure labeled as “Fold change in affinity”, affinity is graphed as the association constant (KA) of the ubiquitin variant being tested divided by the KA of the reference ubiquitin variant, typically the base construct upon which further mutations are stacked as determined by calculating each affinity for binding a fragment of 53BP1 (Table 6) using biolayer interferometry (BLI). The BLI steady-state response versus 53BP1 fragment concentration was plotted in prism to calculate the Kd using a one site-specific binding nonlinear fit model. […] In order to validate if CM1 was the best starting combination of mutations for additional stacking, the contribution of each of the 9 mutations present in CM1 relative to i53 was analyzed and is shown in FIG. 8. […] Additional mutations were then added to CM1 either alone or in combination to determine if the affinity could be further improved.
Testing of additional mutations identified a variant with improved affinity over that of the previously described CM455. In order to determine if the amino acid change made at position 2 (L2M) in CM455 relative to i53 was the optimal amino acid change at that position, we screened additional amino acid changes for their effect on the affinity for binding 53BP1. The fold change in affinity is measured as the association constant (KA) of the ubiquitin variant being tested, divided by the KA of the reference ubiquitin variant (CM489), as determined by calculating each affinity for binding a fragment of 53BP1 using biolayer interferometry (BLI). The BLI steady-state response versus 53BP1 fragment concentration was plotted in prism to calculate the Kd using a one site-specific binding nonlinear fit model. […] Therefore, switching from L2M to L2I in CM455 may result in a ubiquitin variant (CM487) with improved ability to enhance rates of HDR.

[1] = tested on: HDR at a Cas9 cut site in SERPINC1 in HEK293 cells; test: HDR at SERPINC1 Cas9 cut site measured by EcoR1 cleavage; type: cell-based, human; details: FIG. 10B
Protocol: The dashed line indicates the level of HDR with no Ubv added.
To narrow down which variant may have the best activity in cells CM138, CM142, CM143, CM147, CM149, CM158 were selected for additional testing. The 53BP1-binding deficiency mutant amino acid substitutions (P69L and L70V) were added to CM142, CM143, CM147, CM149, and CM158 and the effect on affinity was measured using BLI^11. […] CM142 and CM142-DM (CM203) were also tested for their ability to improve the rate of HDR in cells (FIG. 10B).

[2] = tested on: HDR at a Cas9 cut site in SERPINC1 in HEK293 cells; test: Perfect HDR (6 nt EcoR1 insert) at SERPINC1 Cas9 cut site, Ubv protein nucleofected with Cas9 RNP, measured by NGS; type: cell-based, human
Excerpt: In order to test the effects of the improved affinity of the combination mutant Ubvs for 53BP1 on HIDR, i53, CM1, and CM7 Ubvs were purified and used for testing in human cells (Table 3). The Ubvs were delivered alongside Cas9 V3 (JDT) RNP targeting a site in SERPINC1 with single stranded Alt-R HIDR Donor Oligoes (JDR) to introduce an EcoR1 cut site sequence (GAATTC) at the Cas9 cut site upon successful HIDR (Table 5, see methods described below).
Genome editing was mediated via IDT Alt-R Cas9 ribonucleoprotein (RNP) complexes delivered by Lonza nucleofection in concert with single-stranded oligodeoxynucleotide (ssODN) HDR repair templates. The specific repair event was the insertion of the 6-nt EcoR1 sequence (5′-GAATTC-3′) directly at the canonical Sp Cas9 cut site (between bases 3 and 4 in the 5′-direction from the PAM sequence). HDR complexes were formed with a nuclease-specific guide for the SERPINC1 gene (Table 5). HDR template consisted of a chemically modified ssODN synthesized as IDT Alt-R HDR Donor Oligos with the Alt-R modification. […] HDR was measured by NGS.
To determine if CM455 is able to enhance rates of HDR, we tested its ability to improve rates of HDR measured by introduction of an EcoR1 cut site sequence at SERPINC1 as described in Example 3 with the exception that editing was measured using next generation sequencing.

Sequence of fragment of 53BP1 (Q12888 1484-1603, looked up): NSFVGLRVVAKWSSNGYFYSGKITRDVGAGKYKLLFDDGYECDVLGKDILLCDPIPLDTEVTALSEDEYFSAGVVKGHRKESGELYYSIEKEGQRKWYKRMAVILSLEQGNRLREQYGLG

B1: CM131: base of CM113 plus M1Y, V26I, L73M (protein)
chain: MHHHHHHGGSGYLIFVRMLTGKMIELEVEPSDTIENIKAKIQDHEGIPPDQQRLAFQGKSLEDGRTLSDYNLLIDPKKMPLLRMR
benefit to affinity when added to a base of CM113 (fragment of 53BP1): notably beneficial

B2: CM134: base of CM113 plus E18M, K48T, E51D, S57G (protein)
chain: MHHHHHHGGSGMLIFVRMLTGKMIELEVMPSDTIENVKAKIQDHEGIPPDQQRLAFQGTSLDDGRTLGDYNLLIDPKKMPLLRLR
benefit to affinity when added to a base of CM113 (fragment of 53BP1): notably beneficial

B3: CM135: base of CM113 plus E16M, N25V, Q40E, S49L (protein)
chain: MHHHHHHGGSGMLIFVRMLTGKMIELMVEPSDTIEVVKAKIQDHEGIPPDEQRLAFQGKLLEDGRTLSDYNLLIDPKKMPLLRLR
benefit to affinity when added to a base of CM113 (fragment of 53BP1): notably beneficial

B4: CM142: stacked-mutation ubiquitin variant where X1 is not M; best tolerance for DM mutations (protein)
chain: YLIFVRMLTGKMIELEVEPSDTIENIKAKIQDHEGIPLDQQRLTFQGKLLEDGRTLSDYNLLIDPKKMPLLRMQ
tolerance of affinity (Ka) for the DM mutations (P69L, L70V) (fragment of 53BP1; FIG. 10A): best tolerance for the DM mutations
benefit to rate of HDR compared with i53 [1]: significantly increased benefit to HDR over i53

B5: CM142-DM: CM142 with the DM mutations (P69L, L70V) (protein)
chain: MHHHHHHGGSGYLIFVRMLTGKMIELEVEPSDTIENIKAKIQDHEGIPLDQQRLTFQGKLLEDGRTLSDYNLLIDPKKMLVLRMQ
benefit to rate of HDR compared with i53 [1]: improved benefit to HDR over i53

B6: CM455: P62T and L69A mutations relative to CM476; contains none of the i53 mutations (protein)
chain: YMIFVRMLTGKMIELEVEPSDTIENIKAKIQDHEGIPLDQQRLTFQGKLLEDGRTLSDYNLTISPEKMAVLRMQ
affinity for 53BP1 compared with CM1 (fragment of 53BP1; BLI): on par with or slightly better than that of CM1; also recorded: affinity comparable to CM1
rate of perfect HDR compared with i53 [2]: boost HDR rates to higher levels and at lower concentrations than i53

B7: CM487: CM455 switched from L2M to L2I (Q2I relative to WT ubiquitin) (protein)
chain: YIIFVRMLTGKMIELEVEPSDTIENIKAKIQDHEGIPLDQQRLTFQGKLLEDGRTLSDYNLTISPEKMAVLRMQ
fold change in affinity for position 2 variants of CM455 (fragment of 53BP1; relative to CM489 (leucine at position 2), FIG. 13): higher affinity than the L2M of CM455; also recorded: improved affinity beyond that of CM455
